About 520 (0.14%) of roughly 360,000 compounds were called active. This list was built around the results that the source calls inconclusive (neither active nor inactive); the mix of calls is not that of the screen. The call rests on the fitted dose curve; in most records, active means well fitted inhibition curve with a large enough effect; inconclusive means small, poorly fitted or top-dose-only effect; inactive means no such curve, though single readings can be large or run the other way. No potency is given beside an inconclusive call; the fits are too rough.
What follows are compounds tested against Rap guanine nucleotide exchange factor 3 (Homo sapiens) (UniProt O95398) (assay: qHTS for Antagonist of cAMP-regulated guanine nucleotide exchange factor 3 (EPAC1): primary screen). Conditions: EPAC1 GEF assay, Rap1b-BODIPY-GDP exchange fluorescence; activity change, negative = inhibition: at 115 µM (top of the series).
Sequence of UniProt O95398 (O95398 whole entry, looked up): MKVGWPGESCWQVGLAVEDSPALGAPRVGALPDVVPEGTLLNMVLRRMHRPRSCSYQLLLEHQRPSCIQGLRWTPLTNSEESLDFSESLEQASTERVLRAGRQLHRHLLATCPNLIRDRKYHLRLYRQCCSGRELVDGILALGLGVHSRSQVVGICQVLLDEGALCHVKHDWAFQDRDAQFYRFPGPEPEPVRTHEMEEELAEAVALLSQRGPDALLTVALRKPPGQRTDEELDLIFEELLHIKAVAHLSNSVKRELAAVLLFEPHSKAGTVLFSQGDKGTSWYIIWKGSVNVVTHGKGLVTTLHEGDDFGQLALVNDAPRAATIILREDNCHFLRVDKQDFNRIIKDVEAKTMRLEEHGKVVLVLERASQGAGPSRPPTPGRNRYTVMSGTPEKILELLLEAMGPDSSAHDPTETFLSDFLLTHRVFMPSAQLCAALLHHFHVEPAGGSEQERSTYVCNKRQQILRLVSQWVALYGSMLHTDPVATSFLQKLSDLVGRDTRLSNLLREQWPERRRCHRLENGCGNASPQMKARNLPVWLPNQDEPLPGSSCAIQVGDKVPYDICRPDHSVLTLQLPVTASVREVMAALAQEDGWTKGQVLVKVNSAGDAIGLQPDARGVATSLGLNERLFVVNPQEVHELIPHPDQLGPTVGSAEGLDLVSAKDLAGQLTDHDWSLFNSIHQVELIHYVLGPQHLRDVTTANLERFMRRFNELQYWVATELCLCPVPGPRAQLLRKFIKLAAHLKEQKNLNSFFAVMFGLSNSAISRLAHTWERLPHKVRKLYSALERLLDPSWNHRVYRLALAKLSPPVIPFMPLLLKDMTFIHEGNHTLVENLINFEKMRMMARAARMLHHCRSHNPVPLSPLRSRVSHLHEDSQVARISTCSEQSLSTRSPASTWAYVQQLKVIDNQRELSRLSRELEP
Further: nearly all actives have a fitted effect of over 50% in size.
Potency means the concentration at half of the fitted maximal effect; tags describe the fitted curve by direction and shape.
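Wherever activity change, negative = inhibition is given: plate controls were vehicle for no effect and positive control for full effect.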

**Q.** For `CC[C@]1(C(=O)OC)[C@H]2C(=O)N(C)C(=O)[C@H]2[C@H]2CN=C(SCC3CC3)N21`, which Potency is on record?
**A.** inactive

**Q.** With `CNc1c(-n2cc(C(=O)OC)c(C(=O)OC)c2C(=O)OC)c(=O)n(C)c(=O)n1C` as the compound, how does the Potency read?
**A.** inconclusive [inhibitor, single point]

**Q.** Which Potency does the source give for `CC(=O)NS(=O)(=O)c1ccc(NC(=O)c2cc(-c3ccc(C)cc3)nc3ccccc23)cc1` here?
**A.** inconclusive [inhibitor, single point]

**Q.** For `COc1cc(C=O)c(Cl)cc1OCC(N)=O`, which Potency is on record?
**A.** inactive

**Q.** How did the Potency turn out when `CN(C)CCSc1nc(-c2ccccc2)nc2c1CCC2` was run?
**A.** inconclusive [inhibitor, full curve, poor fit]

**Q.** For `CCc1ccc(NC(=O)COC(=O)CCC2CCCC2)cc1`, which Potency is on record?
**A.** inconclusive [inhibitor, partial curve]

**Q.** With `CCOC(=O)C1(CC)NC(c2cccc(F)c2)C2C(=O)N(CC)C(=O)C21` (stereo not given) as the compound, how does the Potency read?
**A.** inconclusive [inhibitor, partial curve, poor fit]

**Q.** `CN(C)S(=O)(=O)c1ccc(N2CCOCC2)c(C(=O)NCc2ccc3c(c2)OCO3)c1` was tested. Which Potency did it give?
**A.** inconclusive [inhibitor, full curve, poor fit]

**Q.** With `C=CCN1C(=O)c2ccc(C(=O)NCCc3ccc(OC)c(OC)c3)cc2C1=O` as the compound, how does the Potency read?
**A.** inconclusive [inhibitor, single point]

**Q.** `Cc1ccc(-c2cn3cc([N+](=O)[O-])ccc3n2)cc1` was tested. Which Potency did it give?
**A.** inconclusive [inhibitor, single point]

**Q.** `COc1ccc(S(=O)(=O)c2c(N)n(Cc3ccco3)c3nc4ccccc4nc23)cc1` was tested. Which Potency did it give?
**A.** inconclusive [inhibitor, full curve]

**Q.** Which Potency does the source give for `CCN1C(=O)CCN(C2CCCC2)c2nc(Nc3ccc(C(=O)NC4CCN(C)CC4)cc3OC)ncc21` here?
**A.** inactive

**Q.** With `CCSc1nc2nn(-c3ccccc3)c(=O)c-2c2n1CCCCC2` as the compound, how does the Potency read?
**A.** inactive

**Q.** Which activity change, negative = inhibition does the source give for `CC1CCCN(S(=O)(=O)c2ccc3[nH]c4c(c3c2)CCCC4)C1` (stereo not given) here?
**A.** inconclusive: -14.5% [inhibitor]

**Q.** With `C#CCOCCOCCOCCNc1nc(N2CCN(C(=O)[C@H](CO)n3cc([C@@H](N)C(C)C)nn3)CC2)nc(N2CCN(C(=O)[C@H](CO)n3cc([C@@H](N)C(C)C)nn3)CC2)n1` as the compound, how does the Potency read?
**A.** inactive

**Q.** Which Potency does the source give for `N#C/C(=C\c1ccc(O)c(O)c1)C(=O)NCCCc1ccccc1` here?
**A.** inconclusive [inhibitor, full curve]

**Q.** With `CCOC(=O)N1CCc2c(sc3c2c(=O)n(-c2ccc(CC)cc2)c(=O)n3CC(=O)NCC2CCCO2)C1` (stereo not given) as the compound, how does the Potency read?
**A.** inconclusive [inhibitor, full curve, poor fit]

**Q.** For `O=C(NNC(=O)c1ccccc1F)c1ccc(NS(=O)(=O)c2ccc(F)cc2)cc1`, which activity change, negative = inhibition is on record?
**A.** inconclusive: -32.9% [inhibitor]

**Q.** `Cc1cc(N2C(=O)C(O)=C(C(=O)c3cc4ccccc4o3)C2c2cccc(Br)c2)no1` (stereo not given) was tested. Which Potency did it give?
**A.** inactive

**Q.** How did the Potency turn out when `Cc1nn(C)c(C)c1/C=C1/SC(=S)NC1=O` was run?
**A.** inconclusive [inhibitor, single point]

**Q.** For `CC(=O)c1ccc(OCC(O)CN2CCN(S(=O)(=O)c3c(C)c(C)cc(C)c3C)CC2)cc1` (stereo not given), which Potency is on record?
**A.** inconclusive [inhibitor, partial curve, poor fit]

**Q.** `COc1ccc(C(=S)N2CCOCC2)cc1OS(=O)(=O)c1ccccc1[N+](=O)[O-]` was tested. Which Potency did it give?
**A.** inconclusive [inhibitor, full curve]

**Q.** How did the activity change, negative = inhibition turn out when `COc1ccccc1C1(CCNS(=O)(=O)c2ccc(C)cc2)CCOC(C(C)C)C1` (stereo not given) was run?
**A.** inconclusive: -21.3% [inhibitor]

**Q.** `CCc1ccc([C@@H]2CC=C(C(=O)O)[C@H](c3ccc(C)cc3)N2S(=O)(=O)c2ccc(C)cc2)cc1` was tested. Which Potency did it give?
**A.** inconclusive [inhibitor, partial curve]

**Q.** How did the Potency turn out when `S=C(NCCc1ccccc1)Nc1ccc(Nc2ccccc2)cc1` was run?
**A.** inconclusive [inhibitor, full curve, poor fit]

**Q.** How did the Potency turn out when `C/C(C/C(C)=C1/SC(=S)NC1=O)=C1\SC(=S)NC1=O` was run?
**A.** active: 20 µM

**Q.** Which Potency does the source give for `CN1CCN(c2nc3c(c(=O)[nH]c(=O)n3C)n2Cc2ccc(Cl)cc2)CC1` here?
**A.** inconclusive [inhibitor, partial curve]

**Q.** With `O=c1ccc(-c2ccc(S(=O)(=O)Nc3ccc(F)cc3)s2)n[nH]1` as the compound, how does the Potency read?
**A.** inconclusive [inhibitor, partial curve, poor fit]

**Q.** Which Potency does the source give for `Cc1ccc(N2CC(c3nc4ccccc4[nH]3)CC2=O)c(C)c1` (stereo not given) here?
**A.** inconclusive [inhibitor, single point]

**Q.** For `COc1ccc(C(=O)/C=C/c2cccc(OCc3ccccc3)c2)cc1CSCC(=O)O`, which Potency is on record?
**A.** inconclusive [inhibitor, full curve, poor fit]

**Q.** With `O=c1cc(Nc2ccc3c(c2)OCCO3)[nH]c(=O)n1-c1ccc(Cl)cc1` as the compound, how does the Potency read?
**A.** inconclusive [inhibitor, single point]

**Q.** With `Cc1nc2cc(C(=O)OCC(=O)NC34CC5CC(CC(C5)C3)C4)ccc2n1-c1ccccc1` as the compound, how does the Potency read?
**A.** inconclusive [inhibitor, partial curve]

**Q.** `CC(C(=O)NCC1CCCCC1)N1CCN(S(=O)(=O)c2cccs2)CC1` (stereo not given) was tested. Which Potency did it give?
**A.** inconclusive [inhibitor, partial curve]

**Q.** With `N#Cc1nc(-c2cccs2)oc1NCc1ccc2c(c1)OCO2` as the compound, how does the Potency read?
**A.** inconclusive [inhibitor, partial curve]

**Q.** With `O=C(CSc1nc2ccc(Cl)cc2[nH]1)N1CCN(C(=O)c2ccco2)CC1` as the compound, how does the Potency read?
**A.** inconclusive [inhibitor, single point]

**Q.** How did the Potency turn out when `Cc1c(C(c2ccc(O)cc2)c2c(C)n(C)n(-c3ccccc3)c2=O)c(=O)n(-c2ccccc2)n1C` was run?
**A.** inconclusive [inhibitor, partial curve]

**Q.** For `COC(=O)c1nc(-c2ccc(C)cc2)[nH]c1C(C)(C)C`, which Potency is on record?
**A.** inconclusive [inhibitor, partial curve, poor fit]

**Q.** With `COc1cc(/C=C(\C#N)C(=O)NCCc2ccccc2)cc(OC)c1O` as the compound, how does the Potency read?
**A.** inactive

**Q.** How did the Potency turn out when `O=C(Nc1nnc(SCc2ccccn2)s1)C1CC(=O)N(c2ccc(F)cc2)C1` (stereo not given) was run?
**A.** inconclusive [inhibitor, partial curve]

**Q.** How did the Potency turn out when `COc1ccc(NC(=O)/C(=C\c2ccc3c(c2)OCO3)NC(C)=O)cc1` was run?
**A.** inconclusive [inhibitor, full curve, poor fit]

**Q.** How did the activity change, negative = inhibition turn out when `CCC(C(=O)OC)n1cnc2c(nnn2-c2cccc(Cl)c2)c1=O` (stereo not given) was run?
**A.** inconclusive: -21.1% [inhibitor]

**Q.** With `CC1=NN(c2ccccc2)C(=O)/C1=C\c1cn(C)c2ccccc12` as the compound, how does the Potency read?
**A.** inconclusive [inhibitor, single point]

**Q.** For `CCN(CC)S(=O)(=O)c1cccc(NC(=O)c2ccc(Br)cc2)c1`, which Potency is on record?
**A.** inconclusive [inhibitor, single point]

**Q.** For `Cc1ccc(C(=O)Nc2sc(Cc3ccc4c(c3)OCO4)c(C)c2C(N)=O)cc1`, which Potency is on record?
**A.** inconclusive [inhibitor, single point]

**Q.** `O=C1C(Cl)=C(NS(=O)(=O)c2ccc([N+](=O)[O-])cc2)C(=O)c2ccccc21` was tested. Which Potency did it give?
**A.** inconclusive [inhibitor, partial curve]

**Q.** Which Potency does the source give for `CCN1CCN(C(c2ccc(C(F)(F)F)cc2)c2ccc3cccnc3c2O)CC1` (stereo not given) here?
**A.** inconclusive [inhibitor, partial curve]

**Q.** For `O=C(c1c(Cl)cccc1Cl)N1CCN(c2cccc3[nH]ccc23)CC1`, which Potency is on record?
**A.** inconclusive [inhibitor, single point]

**Q.** With `O=C(C(c1ccccc1)c1ccccc1)N1CCC(c2nc(-c3ccccc3Cl)no2)CC1` as the compound, how does the Potency read?
**A.** inconclusive [inhibitor, partial curve]

**Q.** `O=C1N/C(=N\S(=O)(=O)c2ccccc2)S/C1=C\c1cc([N+](=O)[O-])ccc1O` was tested. Which Potency did it give?
**A.** inconclusive [inhibitor, full curve]

**Q.** For `COc1cc(/C=C2\SC(=Nc3ccccc3)N(CCc3c[nH]c4ccccc34)C2=O)ccc1OC(C)C(=O)O` (stereo not given), which Potency is on record?
**A.** inconclusive [inhibitor, full curve, poor fit]

**Q.** `CCC(C)(C)NC(=O)CN(Cc1ccccc1)C(=O)CCC(=O)Nc1nccs1` was tested. Which Potency did it give?
**A.** inconclusive [inhibitor, full curve]

**Q.** For `O=C(COC(=O)CCSc1ccc(Cl)cc1)NCc1ccccc1Cl`, which Potency is on record?
**A.** inconclusive [inhibitor, full curve, poor fit]

**Q.** How did the Potency turn out when `O=C(CCC(=O)c1ccc(Oc2ccccc2)cc1)Nc1cccc(Cl)c1` was run?
**A.** inconclusive [inhibitor, full curve, poor fit]

**Q.** `CC(C)(C)c1ccc(C(=O)NCCC(=O)Nc2cc(Cl)ccc2N2CCOCC2)cc1` was tested. Which Potency did it give?
**A.** inconclusive [inhibitor, single point]

**Q.** For `Cc1ccc(NC2=C(N3CCOCC3)C(=O)c3ccccc3C2=O)cc1`, which Potency is on record?
**A.** inactive

**Q.** How did the Potency turn out when `O=c1cc(-c2ccc(O)cc2)oc2c(O)c(O)c(O)c(O)c12` was run?
**A.** active: 6.31 µM

**Q.** Which Potency does the source give for `Cn1c(SCC(N)=O)nnc1-c1cnccn1` here?
**A.** inconclusive [inhibitor, single point]

**Q.** With `Nc1c(C(=O)Nc2ccc(F)cc2)nnn1-c1cccc(C(F)(F)F)c1` as the compound, how does the Potency read?
**A.** inconclusive [inhibitor, partial curve]

**Q.** For `CCOC(=O)c1ccc2c(c1)C1C=CCC1C(C(=O)OCC)N2` (stereo not given), which Potency is on record?
**A.** inconclusive [inhibitor, partial curve, poor fit]

**Q.** With `CN1CCN(S(=O)(=O)c2ccc(C(=O)NC3CCCCC3)cc2)CC1` as the compound, how does the Potency read?
**A.** inconclusive [inhibitor, partial curve]

— PubChem BioAssay AID720709 (National Center for Advancing Translational Sciences (NCATS), 2013)
